Experimental data reported in PubChem BioAssay AID651820 (National Center for Advancing Translational Sciences (NCATS), 2012).
In all, about 340,000 compounds went through this assay and about 12,000 (3.5%) were called active. Inconclusive results, whose numbers are uncertain, are shown with a selection of clear calls. The call rests on the fitted dose curve; in most records, active means well fitted inhibition curve with a large enough effect; inconclusive means small, poorly fitted or top-dose-only effect, or another doubt; inactive means no such curve, though single readings can be large or run the other way. No potency is given beside an inconclusive call; the fits are too rough.

Assay: qHTS Assay for Inhibitors of Hepatitis C Virus (HCV)
Conditions: Huh7.5.1 HCVcc-Cre (HCVcc is cell-culture hepatitis C virus) infection, luciferase reporter, 44 h; activity change, negative = inhibition: at 41.8 µM (top of the series)
In short: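 Reporter virus HCVcc-Cre (~0.5 moi) infects cells exposed to compound; seeding density 1,000 cells/well with 4 h settling beforehand. Luminescence, 15 sec read, taken 44 h post-infection following a 15 min RT substrate incubation.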
On the % scale 0 is the no-effect control and ±100 the full control effect; potency means the concentration at half of the fitted maximal effect; tags describe the fitted curve by direction and shape.

SMILES | Potency | activity change, negative = inhibition
Cc1cc(NS(C)(=O)=O)c(=O)n(Cc2cccc(F)c2)c1 | inactive | 
CC1=C(C(=O)OCc2ccccc2)C(/C=C/c2ccccc2)N2C(=O)CCSC2=N1 (stereo unspecified) | inconclusive [inhibitor, partial curve] | 
COc1ccc(CC(=O)NN2C(=O)c3ccccc3C2=O)cc1 | inactive | 
COC(C/C=C/C(=O)[C@H](C)OCc1ccccc1)OC |  | inactive: 1% [at 8.37 µM]
COc1cccc(NC(=O)N2CCCC2C(=O)NCc2ccccc2F)c1 (stereo unspecified) | inactive | 
CCCSC1=C(C#N)C(c2cc(OC)ccc2OC)CC(=O)N1 (stereo unspecified) | inconclusive [inhibitor, partial curve] | 
COc1cccc(-c2ccc(NC(=O)C3CCCN(CCCn4nc(C)cc4C)C3)cc2)c1 (stereo unspecified) | inconclusive [inhibitor, full curve, poor fit] | 
CCCOC(=O)Nc1cc(OC)ccc1[N+](=O)[O-] | inconclusive [inhibitor, partial curve] | 
CCC1(c2ccc(F)cc2)NC(=O)N(CC(=O)Nc2ccc(N3CCCCC3)cc2)C1=O (stereo unspecified) | inconclusive [inhibitor, partial curve] | 
COc1cc(OC)c2c(C)cc(=O)oc2c1 | inconclusive [inhibitor, single point] | 
CCCCCn1c(Sc2ncccn2)nc2c1c(=O)[nH]c(=O)n2C | inactive | 
COC(=O)c1sc(NC(=O)CN2CCN(c3cccc(Cl)c3)CC2)c(C(=O)OC)c1C | inconclusive [inhibitor, full curve, poor fit] | 
CCN1CCN(C(=O)c2ccc(-c3nc4ccccc4s3)s2)CC1 | inconclusive [inhibitor, single point] | 
O=C(CSc1ncnc2c1cnn2-c1ccc(F)cc1)NC1CCCC1 | active: 6.31 µM | 
N/C(=N\OC(=O)c1ccc(Br)cc1)c1ccccc1 | inconclusive [inhibitor, full curve, poor fit] | 
C/C(=N\NC(=O)COc1ccc(C)cc1C(C)C)c1ccc(-n2ccnc2)cc1 | inconclusive [inhibitor, single point] | 
COC(=O)[C@@H]1CC[C@H](C)[C@@H](c2ccc(C)cc2)N1C(=O)c1ccc(/C=N/OC[C@@H](O)COCc2ccco2)cc1 | inconclusive [inhibitor, partial curve] | 
O=C(OCC1OC(n2cnc3c(N(C(=O)c4ccccc4)C(=O)c4ccccc4)ncnc32)C(O)C1F)c1ccccc1 (stereo unspecified) | inactive | 
O=C(CSc1nnc(NC2CCCCC2)s1)Nc1ccc2c(c1)C(=O)c1ccccc1C2=O | active: 10 µM | 
CC(Sc1ccc(Cl)cc1)C(=O)NCC(c1ccco1)N1CCCCC1 (stereo unspecified) | inconclusive [inhibitor, single point] | 
COc1ccc(Br)cc1[C@H]1[C@H]2C=CC[C@@H](C)[C@@H]2C(=O)N1Cc1ccccc1 | inconclusive [inhibitor, partial curve] | 
COc1ccccc1NS(=O)(=O)c1ccc(C)c(NC(=O)NC2CCCCC2)c1 | inconclusive [inhibitor, single point] | 

SMILES | Potency | activity change, negative = inhibition
Cc1cccc2cc(CN(CC(C)C)S(=O)(=O)c3ccccc3)c(=O)[nH]c12 | inconclusive [inhibitor, single point] | 
COc1cccc(OCCN2CCN(c3ncnc4c3cnn4-c3ccccc3)CC2)c1 | active: 7.08 µM | 
COc1ccccc1OCC(=O)Nc1cccc(-c2nnc(-c3ccco3)o2)c1 | inconclusive [inhibitor, single point] | 
CCn1c(C)[n+](Cc2ccccc2)c2ccc(C(=O)OC)cc21 | inactive | 
CC1(C)CC[C@]2(C(=O)O)[C@H](O)C[C@]3(C)C(=CCC4[C@@]5(C)C[C@H](O)[C@H](O)[C@@](C)(CO)C5CC[C@]43C)[C@@H]2C1 (stereo partly specified) | inactive | 
O=C(O)c1ccccc1SC1CC(=O)N(c2ccccc2)C1=O (stereo unspecified) | inactive | 
COc1ccc(C2c3[nH]c4ccccc4c3CCN2C(=O)c2cc3ncccn3n2)c(F)c1 (stereo unspecified) | inconclusive [inhibitor, single point] | 
S=C(Nc1cc(Cl)ccc1Oc1ccccc1)N1CCN(c2ccccn2)CC1 | active: 11.2 µM | 
CC(=O)Nc1cc[n+](C(C)C(=O)c2ccccc2)cc1 (stereo unspecified) | inconclusive [inhibitor, partial curve] | 
Cc1cc(C)nc(SCC(=O)c2ccc(Cl)cc2)n1 | active: 2.82 µM | 
Cc1cc(C)c2c(N=CN(C)C)c(C(=O)N3CCN(c4ncccn4)CC3)sc2n1 | inconclusive [inhibitor, partial curve] | 
C(=C1c2ccccc2-c2ccccc21)c1ccncc1 | inconclusive [inhibitor, single point] | 
C/C=C\C=C/C(=O)Nc1cccc(C2=NOC3(C2)C[C@H](C(N)=O)N(C(=O)CC)C3)c1 (stereo partly specified) | inactive | 
O=c1c(Cl)c2oc3ccccc3nc-2c2ccccc12 | inconclusive [inhibitor, partial curve] | 
Cc1cc(C)cc(N(CC(=O)NC2CCC(C)CC2)S(=O)(=O)c2c(C)[nH]c(=O)[nH]c2=O)c1 (stereo unspecified) | inconclusive [inhibitor, single point] | 
COC(=O)C(Cc1ccccc1)N1CCS(=O)(=O)CC1 (stereo unspecified) | inactive | 
O=C(NCc1ccoc1)c1ccc(NC(=O)c2ccccc2Cl)cc1 | inconclusive [inhibitor, single point] | 
Fc1cc(NC(=S)NCc2ccc(CNC(=S)Nc3ccc(Cl)c(F)c3)cc2)ccc1Cl | inconclusive [inhibitor, full curve, poor fit] | 
CN(C)CCCN1C(=O)c2cccc3c([N+](=O)[O-])ccc(c23)C1=O | inconclusive [inhibitor, full curve, poor fit] | 
CC(C)Oc1cc(NC(=O)CSCC(=O)Nc2cccc(C(F)(F)F)c2)c(Cl)cc1Cl | inconclusive [inhibitor, partial curve, poor fit] | 
COC(=O)c1sc(N2CCN(Cc3ccccc3)CC2)nc1N | inconclusive [inhibitor, single point] | 
COc1cc(NC(=O)CN2CCN(Cc3ccc4c(c3)OCO4)CC2)cc(OC)c1 | inconclusive [inhibitor, single point] | 

SMILES | Potency | activity change, negative = inhibition
CC(C)C(=O)N1CCC(n2nccc2NC(=O)CCc2ccccc2)CC1 | inactive | 
CCN(CCO)c1ncnc2c1sc1nc(CC(C)C)c3c(c12)CC(C)(C)OC3 | active: 14.1 µM | 
CCN(CC)CCCC(C)NC(=O)c1c(NC(=O)c2ccccc2)sc2c1CCCC2 (stereo unspecified) | active: 10 µM | 
COc1ccc(Oc2ccc(/C=N/NC(=O)c3cccnc3)cc2[N+](=O)[O-])cc1 | inconclusive [inhibitor, single point] | 
COc1ccccc1CNC(=O)c1csc(Cc2ccc(Cl)cc2)n1 | inconclusive [inhibitor, single point] | 
CC(C)n1c(O)c(/C=C2\C=Nc3ccccc32)sc1=Nc1ccccc1 | inconclusive [inhibitor, partial curve, poor fit] | 
Cc1ccc(-n2c(SCC(=O)c3c(N)n(C)c(=O)n(C)c3=O)nc3sc4c(c3c2=O)CCCC4)c(C)c1 | inconclusive [inhibitor, partial curve] | 
CC(CC(=O)Nc1nnc(CC(C)(C)C)s1)c1ccccc1 (stereo unspecified) | inactive | 
COc1ccc(CN2CC(C(=O)NCCc3ccccc3)CC2=O)cc1 (stereo unspecified) | inactive | 
Cc1ccc(NC(=O)C(=O)NCCOc2ccc(Cl)cc2)c(C)c1 | inactive | 
COc1cc(-c2ccc3oc(-c4cccc(C)c4)c(C#CC4(O)CCCCC4)c3c2)cc(OC)c1OC | inconclusive [inhibitor, full curve] | 
COc1ccc(C(CNC(=O)COc2c(C)cc(C)cc2C)N2CCOCC2)cc1 (stereo unspecified) | inconclusive [inhibitor, partial curve] | 
Cc1[nH]n(C(N)=S)c(=O)c1N=Nc1ccc(Br)cc1 | inactive | 
CCC(=Nc1ccc2c(c1)CCC2)c1c(O)n(C)c(=O)n(C)c1=O | inconclusive [inhibitor, single point] | 
O=C(Nc1ccc(-c2nc3ccccc3o2)cc1)c1ccc(N2CCOCC2)c([N+](=O)[O-])c1 | inconclusive [inhibitor, partial curve, poor fit] | 
CCCCn1c(SCC(=O)NCc2ccco2)nc2c1c(=O)n(C)c(=O)n2C | inconclusive [inhibitor, single point] | 
CC(=O)Oc1ccc(-c2cccc(C(=O)OCC(=O)Nc3ccccc3Oc3ccccc3)c2)cc1 | inconclusive [inhibitor, single point] | 
CSCc1ccc(C(=O)NCCSc2ccc(Br)cc2)cc1 | inactive | 
Cc1ccc2nc(N3C(=O)C(O)=C(C(=O)c4cc5ccccc5o4)C3c3cccs3)sc2c1 (stereo unspecified) | inconclusive [inhibitor, single point] | 
COc1ccc(CCNC(=O)CCCCCn2c(SCC(N)=O)nc3cc4c(cc3c2=O)OCO4)cc1OC | inconclusive [inhibitor, partial curve, poor fit] | 
N=c1c(C(=O)NCc2ccc3c(c2)OCO3)cc2c(=O)n3ccccc3nc2n1Cc1cccnc1 | active: 6.31 µM | 
Cc1ccc(N(CC(=O)NCc2ccc3c(c2)OCO3)C(=O)CCC(=O)Nc2ccccn2)cc1 | inconclusive [inhibitor, partial curve, poor fit] | 
